Read counts are not given, so values of variants with three or more changes are uncertain.
B1: LINE1-full (parent)
chain: UACGUAGGUGGUUUUCCCCUGAUAGUGCUAAGGGGGCCUGGAAGUUUGGACUGGGCAGAGCUCAACACAGCGUGGCAAAGUGGCUGUGGCUAGACUGCCUCUCUGGAUUCCUCGUCACUCAGCAGGGCAUCUCUGAGAGAAAUGCC
B2: OR4K15 (parent)
chain: GUUAACGGUCAUAGGCCAUGGAAACUAGGAGCACCAUUUCGCUGCCAGUGAAGAAAUGAACAAAGAAAAUCUGGGCCAGGCAGGCAUCAAAAGAAAUAGUCUUGCGCUCAACCAGAAAGUCUGUAAUCAUUUUAAGGGUA

Variants of: B1
Assay: self-cleavage, relative activity (ratio to wild type); higher = more cleavage; in vitro, sequencing; the parent is a self-cleaving ribozyme
Variant U115C U119C U132C has a self-cleavage of 1.15.
U115C U130C A140G gave a self-cleavage of 2.85.
In the case of U115G A117U A121G, the self-cleavage is reported as 0.
Work on U115G U132C A142G yielded a self-cleavage of 1.25.
Variant C116U U134A A138G has a self-cleavage of 1.39.
Variant A117G A138G A142G has a self-cleavage of 0.89.
With A117G A138U A142U the self-cleavage was 2.14.
For A117G G126A U134C A140G, the self-cleavage was 1.87.
In the case of A117G G127U A142G, the self-cleavage is reported as 1.25.
A117G U119A U143A gave a self-cleavage of 1.3.
Work on A117G U119C U143C yielded a self-cleavage of 1.6.
With A117G U130A A140G the self-cleavage was 0.43.
A117G U130C G137U A138U showed a self-cleavage of 1.88.
In the case of A117U A121G U132C, the self-cleavage is reported as 2.04.
With A117U A129G A136G the self-cleavage was 1.8.
U119A A121U U143A showed a self-cleavage of 1.26.
U119A A141G U143A gave a self-cleavage of 0.73.
Work on U119C A124U U143C yielded a self-cleavage of 1.81.
U119C U134A A140G showed a self-cleavage of 0.62.
For U119G U132C A141G, the self-cleavage was 1.99.
A121G A124U A140G showed a self-cleavage of 2.38.
For A121G A124U A141G, the self-cleavage was 1.63.
Variant A121G A136U A138U has a self-cleavage of 0.99.
Variant A121G A138G G144A has a self-cleavage of 1.67.
In the case of A121G G125A U132C, the self-cleavage is reported as 0.74.
In the case of A121U A124C U134C, the self-cleavage is reported as 1.68.
A121U A136G A142G showed a self-cleavage of 1.72.
A121U A138G A140U showed a self-cleavage of 1.47.
A121U A140G A142G showed a self-cleavage of 1.62.
In the case of A121U A141G U143C, the self-cleavage is reported as 1.49.
In the case of A121U G122A A138G, the self-cleavage is reported as 0.95.
In the case of A121U U130A A142C, the self-cleavage is reported as 2.13.
A121U U132C U134C showed a self-cleavage of 1.81.
In the case of C123U A124G A141G, the self-cleavage is reported as 1.36.
With A124G A136G A141G the self-cleavage was 1.67.
Variant A124G G127U A142G has a self-cleavage of 0.
Work on A124G U132C A141G yielded a self-cleavage of 2.34.
Variant A124U U132C C146A has a self-cleavage of 1.56.
A124U U132C U134C showed a self-cleavage of 2.51.
For G125A U132C U143A, the self-cleavage was 1.17.
For G126A U132A A142G, the self-cleavage was 1.84.
A129G A138G C145U gave a self-cleavage of 2.22.
For A129G A142G U143C, the self-cleavage was 1.86.
Work on A129G U134A C146A yielded a self-cleavage of 1.02.
In the case of A129U U130C U132C A142C, the self-cleavage is reported as 0.
Variant A129U U134A A140U has a self-cleavage of 0.49.
U130A G135A A140G gave a self-cleavage of 1.61.
For U130C A136U A138G, the self-cleavage was 2.63.
Work on U130C A138G C146U yielded a self-cleavage of 2.04.
Variant U130C U134C A141G has a self-cleavage of 2.18.
In the case of U130C U134C G144A, the self-cleavage is reported as 1.73.
With C131A A140G A141G the self-cleavage was 1.25.
For U132C A136U A141G, the self-cleavage was 1.89.
With U132C A140G G144A the self-cleavage was 1.49.
U132C A141G U143A showed a self-cleavage of 1.2.
In the case of U132C G135A A138G, the self-cleavage is reported as 1.91.
For U132C U134A A142G, the self-cleavage was 0.78.
U132C U134C A140G showed a self-cleavage of 2.05.
Variant U134C A136G C146U has a self-cleavage of 1.7.
Work on A136G A138G A141G yielded a self-cleavage of 2.04.
Work on A136G A141U A142G yielded a self-cleavage of 1.23.
A138G A141G A142G showed a self-cleavage of 1.41.
With A138G A141G A142U the self-cleavage was 0.89.
A140G A142G U143A gave a self-cleavage of 1.15.

Variants of: B2
Assay: as above
G1A A18G A52G A68G U70C A111G showed a self-cleavage of 0.08.
Work on G1A A18G A60G yielded a self-cleavage of 1.47.
G1A A18G U19G A55U A135G gave a self-cleavage of 0.92.
In the case of G1A A22G A56G A59G, the self-cleavage is reported as 1.31.
For G1A A22G A66G U127C, the self-cleavage was 0.67.
For G1A A24G A95U A125G U130C, the self-cleavage was 0.24.
G1A A36G U37C U43C A91G U120C showed a self-cleavage of 0.31.
With G1A A36G U57A A86G U124C the self-cleavage was 0.52.
Variant G1A A47G A62G A111U has a self-cleavage of 0.16.
With G1A A56G A62U the self-cleavage was 1.62.
G1A A60G A62G U100C gave a self-cleavage of 2.14.
Work on G1A A62U A125G U127C yielded a self-cleavage of 0.58.
For G1A A66G G73A, the self-cleavage was 0.58.
In the case of G1A A69G U122A, the self-cleavage is reported as 1.24.
G1A A90G A111G gave a self-cleavage of 0.03.
G1A A90G A114U showed a self-cleavage of 0.04.
Work on G1A A117G U120A A135U yielded a self-cleavage of 2.64.
For G1A G31C U122A, the self-cleavage was 0.95.
With G1A G53A U100C the self-cleavage was 2.09.
Work on G1A G106A U122C yielded a self-cleavage of 0.01.
